Results published in publication PMC8119438.
Results are given in words; binding and its absence hold for the method and conditions named. In cells and extracts the contact can be indirect. Some results given as binding are weak or reduced against the parent protein; the word gives no strength. Tags and fused reporters may be left off the sequences shown.

Key:
GFP-RILP (mouse) = biological target: T1, GFP-RILP (mouse) (UniProt Q5ND29); assay: co-IP; RBL cells co-transfected with pEGFP and pEF-T7 constructs; lysate (500 μg, buffer A: 50 mM Hepes pH 7.4, 250 mM NaCl, 1 mM MgCl2, 1% Triton X-100) immunoprecipitated overnight at 4 °C with rabbit polyclonal anti-GFP; blot with anti-T7 (Fig. 1a,b)
T1 sequence: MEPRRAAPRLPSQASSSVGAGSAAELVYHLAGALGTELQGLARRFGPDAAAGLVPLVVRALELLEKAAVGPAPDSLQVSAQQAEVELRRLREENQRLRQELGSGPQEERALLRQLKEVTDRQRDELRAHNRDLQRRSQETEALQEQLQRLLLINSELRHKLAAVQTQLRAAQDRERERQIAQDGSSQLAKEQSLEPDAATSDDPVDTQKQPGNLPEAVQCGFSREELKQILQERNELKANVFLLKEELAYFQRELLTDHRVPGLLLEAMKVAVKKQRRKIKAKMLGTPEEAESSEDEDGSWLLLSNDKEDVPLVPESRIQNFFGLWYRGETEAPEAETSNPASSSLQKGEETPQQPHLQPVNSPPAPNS

T7-RILP (mouse) = biological target: T2, T7-RILP (mouse) (UniProt Q5ND29); assay: co-IP; reciprocal: same co-transfected RBL lysates immunoprecipitated overnight at 4 °C with mouse monoclonal anti-T7; blot with anti-GFP (Fig. 1c,d)
T2 sequence: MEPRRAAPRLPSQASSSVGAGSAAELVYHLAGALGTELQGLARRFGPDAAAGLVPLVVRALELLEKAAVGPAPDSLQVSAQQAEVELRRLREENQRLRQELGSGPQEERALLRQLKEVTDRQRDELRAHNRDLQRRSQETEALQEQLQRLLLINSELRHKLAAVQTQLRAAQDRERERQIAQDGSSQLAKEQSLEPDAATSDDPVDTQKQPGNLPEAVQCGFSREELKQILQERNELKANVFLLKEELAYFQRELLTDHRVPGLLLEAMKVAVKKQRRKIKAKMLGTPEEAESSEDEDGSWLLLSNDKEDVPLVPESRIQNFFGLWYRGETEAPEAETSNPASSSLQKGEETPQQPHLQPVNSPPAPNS

T7-RILP-L1 (mouse) = biological target: T3, T7-RILP-L1 (mouse) (UniProt Q9JJC6); assay: as above
T3 sequence: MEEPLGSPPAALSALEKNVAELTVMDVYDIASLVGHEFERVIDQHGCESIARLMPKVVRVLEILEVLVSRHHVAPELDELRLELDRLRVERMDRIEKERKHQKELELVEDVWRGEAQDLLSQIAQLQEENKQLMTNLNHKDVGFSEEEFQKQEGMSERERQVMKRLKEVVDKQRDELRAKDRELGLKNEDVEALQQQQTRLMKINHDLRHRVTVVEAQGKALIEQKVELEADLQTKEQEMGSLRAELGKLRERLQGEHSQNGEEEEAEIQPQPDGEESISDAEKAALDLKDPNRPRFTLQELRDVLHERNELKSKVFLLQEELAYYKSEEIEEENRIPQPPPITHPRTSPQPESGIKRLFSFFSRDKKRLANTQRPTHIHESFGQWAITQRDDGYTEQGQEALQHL

T7-RILP-L2 (mouse) = biological target: T4, T7-RILP-L2 (mouse) (UniProt Q99LE1); assay: as above
T4 sequence: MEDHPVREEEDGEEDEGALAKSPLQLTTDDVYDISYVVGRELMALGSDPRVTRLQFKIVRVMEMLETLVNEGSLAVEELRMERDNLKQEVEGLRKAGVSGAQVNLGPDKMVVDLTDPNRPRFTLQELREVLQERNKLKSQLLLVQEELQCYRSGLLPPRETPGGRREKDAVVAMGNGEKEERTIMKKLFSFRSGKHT

GST-RILP (mouse) [1] = biological target: T5, GST-RILP (mouse) (UniProt Q5ND29); assay: pull-down; GST-RILP, GST-RILP-L1 or GST-RILP-L2 on glutathione agarose beads incubated with RBL cell lysates (GFP fusions; Rab12), 18 h at 4 °C, 0.5 mM GTPγS (Supplementary figure S2); only the target purified
T5 sequence: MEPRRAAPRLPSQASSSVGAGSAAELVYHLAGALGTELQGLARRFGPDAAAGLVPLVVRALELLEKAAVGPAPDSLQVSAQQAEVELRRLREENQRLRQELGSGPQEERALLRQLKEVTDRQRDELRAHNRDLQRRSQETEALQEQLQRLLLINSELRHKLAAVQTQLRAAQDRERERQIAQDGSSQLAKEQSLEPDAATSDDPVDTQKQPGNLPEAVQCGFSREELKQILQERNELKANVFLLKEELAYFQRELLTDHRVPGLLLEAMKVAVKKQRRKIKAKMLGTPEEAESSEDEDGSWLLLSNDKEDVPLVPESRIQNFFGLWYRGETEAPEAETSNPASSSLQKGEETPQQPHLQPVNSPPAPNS

GST-RILP-L2 (mouse) = biological target: T6, GST-RILP-L2 (mouse) (UniProt Q99LE1); assay: as above
T6 sequence: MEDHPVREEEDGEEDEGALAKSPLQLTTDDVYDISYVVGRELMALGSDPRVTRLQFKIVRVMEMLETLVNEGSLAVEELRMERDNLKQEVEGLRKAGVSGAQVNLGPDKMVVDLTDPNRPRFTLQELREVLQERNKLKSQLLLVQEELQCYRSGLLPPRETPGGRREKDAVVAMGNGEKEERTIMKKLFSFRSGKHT

GST-RILP-L1 (mouse) = biological target: T7, GST-RILP-L1 (mouse) (UniProt Q9JJC6); assay: as above
T7 sequence: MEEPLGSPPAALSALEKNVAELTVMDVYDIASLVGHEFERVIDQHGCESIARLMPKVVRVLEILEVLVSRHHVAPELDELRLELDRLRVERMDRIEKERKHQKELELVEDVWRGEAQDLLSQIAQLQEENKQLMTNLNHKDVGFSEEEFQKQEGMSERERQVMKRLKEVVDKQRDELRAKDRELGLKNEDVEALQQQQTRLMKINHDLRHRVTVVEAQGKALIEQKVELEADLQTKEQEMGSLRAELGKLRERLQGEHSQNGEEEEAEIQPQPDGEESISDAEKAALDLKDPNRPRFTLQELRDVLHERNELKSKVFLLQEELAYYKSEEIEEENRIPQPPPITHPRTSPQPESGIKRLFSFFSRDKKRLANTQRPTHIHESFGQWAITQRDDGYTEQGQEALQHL

GST-RILP (mouse) [2] = biological target: T5, GST-RILP (mouse); assay: pull-down; 5 μg GST-RILP on glutathione agarose beads, 4 h at 4 °C with vehicle (2 or 4% DMSO) or 200 μM peptide 1, peptide 2 or both, then 18 h with RBL cell lysate (500 μg), 0.5 mM GTPγS; blot anti-Rab12; only the target purified

B1: T7-RILP (protein, UniProt Q5ND29 1-369)
chain: MEPRRAAPRLPSQASSSVGAGSAAELVYHLAGALGTELQGLARRFGPDAAAGLVPLVVRALELLEKAAVGPAPDSLQVSAQQAEVELRRLREENQRLRQELGSGPQEERALLRQLKEVTDRQRDELRAHNRDLQRRSQETEALQEQLQRLLLINSELRHKLAAVQTQLRAAQDRERERQIAQDGSSQLAKEQSLEPDAATSDDPVDTQKQPGNLPEAVQCGFSREELKQILQERNELKANVFLLKEELAYFQRELLTDHRVPGLLLEAMKVAVKKQRRKIKAKMLGTPEEAESSEDEDGSWLLLSNDKEDVPLVPESRIQNFFGLWYRGETEAPEAETSNPASSSLQKGEETPQQPHLQPVNSPPAPNS
binding (GFP-RILP (mouse)): binds

B2: GFP-RILP (protein, UniProt Q5ND29 1-369)
chain: MEPRRAAPRLPSQASSSVGAGSAAELVYHLAGALGTELQGLARRFGPDAAAGLVPLVVRALELLEKAAVGPAPDSLQVSAQQAEVELRRLREENQRLRQELGSGPQEERALLRQLKEVTDRQRDELRAHNRDLQRRSQETEALQEQLQRLLLINSELRHKLAAVQTQLRAAQDRERERQIAQDGSSQLAKEQSLEPDAATSDDPVDTQKQPGNLPEAVQCGFSREELKQILQERNELKANVFLLKEELAYFQRELLTDHRVPGLLLEAMKVAVKKQRRKIKAKMLGTPEEAESSEDEDGSWLLLSNDKEDVPLVPESRIQNFFGLWYRGETEAPEAETSNPASSSLQKGEETPQQPHLQPVNSPPAPNS
binding (T7-RILP (mouse)): binds | binding (T7-RILP-L1 (mouse)): no binding | binding (T7-RILP-L2 (mouse)): no binding | binding (GST-RILP (mouse) [1]): binds

B3: GFP-RILP-L2 (protein, UniProt Q99LE1 1-197)
chain: MEDHPVREEEDGEEDEGALAKSPLQLTTDDVYDISYVVGRELMALGSDPRVTRLQFKIVRVMEMLETLVNEGSLAVEELRMERDNLKQEVEGLRKAGVSGAQVNLGPDKMVVDLTDPNRPRFTLQELREVLQERNKLKSQLLLVQEELQCYRSGLLPPRETPGGRREKDAVVAMGNGEKEERTIMKKLFSFRSGKHT
binding (T7-RILP-L2 (mouse)): binds | binding (GST-RILP (mouse) [1]): no binding | binding (GST-RILP-L2 (mouse)): binds | binding (GST-RILP-L1 (mouse)): no binding

B4: Rab12 (endogenous, RBL cell lysate) (protein, UniProt P35284 1-291)
chain: MLLPLLRRSCFPSSTPGGGGSGGGAERVEGARGPGARGRRPEREPYACMDPSAALHRRPAGGGLGAVSPALSGGQARRRKQPPRPADFKLQVIIIGSRGVGKTSLMERFTDDTFCEACKSTVGVDFKIKTVELRGKKIRLQIWDTAGQERFNSITSAYYRSAKGIILVYDITKKETFDDLPKWMKMIDKYASEDAELLLVGNKLDCETDREISRQQGEKFAQQITGMRFCEASAKDNFNVDEIFLKLVDDILKKMPLDVLRSELSNSILSLQPEPEIPPELPPPRPHVRCC
binding (GST-RILP (mouse) [2]): binds | binding (GST-RILP-L1 (mouse)): binds

EACKSTVGVDFKIKT [peptide 1 (Rab12 amino acids 68 to 82)]
binding (GST-RILP (mouse) [2]): binds
